Among all 310,000 compounds or so, about 2,200 (0.71%) showed an effect of 50% or more. The effect is printed as a negative number. The list shows a part of the results.

The target in the assay is human ether-à-go-go-related gene (hERG) potassium channel (human, UniProt Q12809). The experiment in a line: primary screen, population patch clamp on CHO cells stably expressing hERG.
Chain of human ether-à-go-go-related gene (hERG) potassium channel (Q12809 whole entry, looked up): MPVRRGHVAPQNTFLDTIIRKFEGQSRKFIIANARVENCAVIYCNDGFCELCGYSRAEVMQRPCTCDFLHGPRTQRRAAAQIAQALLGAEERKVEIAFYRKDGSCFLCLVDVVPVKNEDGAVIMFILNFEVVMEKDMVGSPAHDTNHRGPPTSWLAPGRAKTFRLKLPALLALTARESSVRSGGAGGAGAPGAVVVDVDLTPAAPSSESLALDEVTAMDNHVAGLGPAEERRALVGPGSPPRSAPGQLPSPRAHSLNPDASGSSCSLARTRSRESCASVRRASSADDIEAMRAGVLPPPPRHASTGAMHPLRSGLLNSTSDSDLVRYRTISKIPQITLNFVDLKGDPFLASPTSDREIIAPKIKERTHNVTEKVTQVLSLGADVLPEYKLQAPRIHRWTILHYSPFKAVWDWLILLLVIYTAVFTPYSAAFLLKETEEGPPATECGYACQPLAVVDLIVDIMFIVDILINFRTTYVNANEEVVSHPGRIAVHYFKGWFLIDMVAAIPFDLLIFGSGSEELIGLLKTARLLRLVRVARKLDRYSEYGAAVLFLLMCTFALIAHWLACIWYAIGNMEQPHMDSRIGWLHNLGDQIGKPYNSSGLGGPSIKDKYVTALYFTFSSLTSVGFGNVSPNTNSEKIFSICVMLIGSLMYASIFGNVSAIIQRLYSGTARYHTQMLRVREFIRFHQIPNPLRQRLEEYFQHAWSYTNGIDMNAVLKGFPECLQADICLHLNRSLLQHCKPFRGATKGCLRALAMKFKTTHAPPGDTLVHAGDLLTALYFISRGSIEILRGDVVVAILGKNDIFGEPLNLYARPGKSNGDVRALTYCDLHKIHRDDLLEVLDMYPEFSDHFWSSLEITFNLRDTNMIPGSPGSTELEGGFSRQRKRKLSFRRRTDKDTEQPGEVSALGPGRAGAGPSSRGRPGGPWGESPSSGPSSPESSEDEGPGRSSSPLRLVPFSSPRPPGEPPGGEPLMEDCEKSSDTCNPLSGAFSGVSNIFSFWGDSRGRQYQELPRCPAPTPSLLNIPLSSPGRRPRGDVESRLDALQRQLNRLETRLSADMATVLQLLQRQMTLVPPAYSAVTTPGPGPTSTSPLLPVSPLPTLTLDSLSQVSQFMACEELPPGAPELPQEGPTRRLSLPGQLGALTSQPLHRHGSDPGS
Take `CCCCC(=O)NCc1ccc(F)cc1`: the “hERG current change (%, negative = inhibition) at 1uM” value was determined as 13%.

On to `Cc1ccc(NC(=O)C2C(=O)N(CCO)C3(C)CC2c2ccccc2O3)cc1` (stereo not shown), for which the “hERG current change (%, negative = inhibition) at 1uM” value is on record as -15.3%.

As for `CN1CCN(C(=O)c2cnn(-c3ccccc3)c2NC(=O)c2ccccc2F)CC1`, the “hERG current change (%, negative = inhibition) at 1uM” value came out at 8.22%.

Take `O=C(NC1CCCCC1)C(Cc1ccccc1)NS(=O)(=O)c1cccs1` (stereo not shown): the “hERG current change (%, negative = inhibition) at 1uM” value came out at 13%.

Consider `CCCN(C(=O)c1cn(-c2ccccc2)nc1-c1ccc(OC)cc1)C1CCS(=O)(=O)C1` (stereo not shown), for which the “hERG current change (%, negative = inhibition) at 1uM” value was 3.17%.

As for `CCCCCC(=O)Nc1ccc(C(=O)CN2C(=O)NC3(CCCCCC3)C2=O)cc1`, the “hERG current change (%, negative = inhibition) at 1uM” value is 10.7%.

Take `CCOc1ccccc1NC(=O)NCc1ccc(F)cc1`: the “hERG current change (%, negative = inhibition) at 1uM” value came out at 7.57%.

Turning to `COc1ccc(-c2nnc(SCC3CCCO3)n2C)cc1` (stereo not shown), the “hERG current change (%, negative = inhibition) at 1uM” value came out at 10.3%.

As to `COc1cccc(CNCCc2ccc(F)cc2)c1.O=C(O)C(=O)O`, the “hERG current change (%, negative = inhibition) at 1uM” value is recorded as 4.34%.

Consider `O=S(=O)(NC1CCCC1)c1cccc(-c2nnc(-c3ccccc3)o2)c1`, for which the “hERG current change (%, negative = inhibition) at 1uM” value is given as 3.05%.

On to `CCN(CC(=O)Nc1c(F)cccc1F)C(=O)c1cc(S(=O)(=O)NCc2ccccc2)ccc1C`, for which the “hERG current change (%, negative = inhibition) at 1uM” value came out at 0.981%.

In the case of `Cc1cc(C)cc(Oc2ccccc2C=O)c1`, the “hERG current change (%, negative = inhibition) at 1uM” value was 10.6%.

In the case of `CC(C)Cc1nnc(NC(=O)CCC(=O)N2CCC3(CC2)OCCO3)s1`, the “hERG current change (%, negative = inhibition) at 1uM” value was found to be 12.9%.

Consider `CCCCNC(=O)Nc1ccnn1C1CCCCC1`, for which the “hERG current change (%, negative = inhibition) at 1uM” value came out at 14.6%.

As for `Nc1nnnn1CC(=O)N/N=C/c1ccc(-c2cccc(Cl)c2)o1`, the “hERG current change (%, negative = inhibition) at 1uM” value is 8.91%.

Regarding `CCCCC(=O)NC1(C(F)(F)F)C(=O)N(CC(C)C)C2=C1C(=O)CC(C)(C)C2` (stereo not shown), the “hERG current change (%, negative = inhibition) at 1uM” value was determined as 8.89%.

Regarding `COc1cc(/C=N/NC(=O)c2ccc(F)cc2)ccc1OC(=O)c1ccco1`, the “hERG current change (%, negative = inhibition) at 1uM” value was 8.79%.

Regarding `Cc1cc(CN2C(=O)c3ccccc3C2=O)on1`, the “hERG current change (%, negative = inhibition) at 1uM” value is on record as 15.5%.

Consider `COC(=O)c1nc(NC(=O)C(C)(C)C)n[nH]1`, for which the “hERG current change (%, negative = inhibition) at 1uM” value is on record as 6.78%.

`CCCc1[nH]c2ccc(C#N)cc2c1CCC`: the “hERG current change (%, negative = inhibition) at 1uM” value is given as 22.1%.

As to `C=CCSCC1Nc2cc(Cl)c(S(N)(=O)=O)cc2S(=O)(=O)N1` (stereo not shown), the “hERG current change (%, negative = inhibition) at 1uM” value is recorded as 14.4%.

Consider `CCn1c2ccccc2c2cc(NC(=O)CSc3nnc(-c4ccc(OC)cc4)n3N)ccc21`, for which the “hERG current change (%, negative = inhibition) at 1uM” value is -3.06%.

For `Cc1ccc(OCCn2cc(C(=S)N3CCCC3)c3ccccc32)cc1C`, the “hERG current change (%, negative = inhibition) at 1uM” value worked out at 16.8%.

With `COc1cccc(N2CCN(Cc3nc(N)nc(Nc4ccccc4OC)n3)CC2)c1`, the “hERG current change (%, negative = inhibition) at 1uM” value was determined as 10.2%.

Take `O=C(c1cc2ccccc2oc1=O)N(Cc1ccc(F)cc1)C1CCS(=O)(=O)C1` (stereo not shown): the “hERG current change (%, negative = inhibition) at 1uM” value is 2.7%.

The values above are taken from publication PMC4336329 (PLoS ONE, 2015).
